Laboratory results as given in PubChem BioAssay AID1645887 (National Center for Advancing Translational Sciences (NCATS), 2021).
Values joined by “and” are separate entries in the source; they are usually repeats but may differ in a detail not shown here. Equal entries are not always repeated. The campaign covered roughly 16,000 compounds. About 40 (0.2%) were called active. Not shown: some 1% with an inconclusive outcome. Calls follow the shape of the dose curve; as a rule, active = well fitted activation curve with a large enough effect; inconclusive = small, poorly fitted or top-dose-only effect, or another doubt; inactive = no such curve, though single readings can be large or run the other way. Some of the results follow.

target: Rap guanine nucleotide exchange factor 4 (Homo sapiens) (UniProt Q8WZA2); experiment: Validation qHTS for agonist of cAMP-regulated guanine nucleotide exchange factor 4 (EPAC2); conditions: EPAC2 Rap1B BODIPY-GDP exchange, fluorescence; activation: active compounds read high;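 also: exchange makes BODIPY-GDP fluorescence drop when released from Rap1B; series mostly up to about 150 µM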
Sequence of UniProt Q8WZA2 (Q8WZA2 whole entry, looked up): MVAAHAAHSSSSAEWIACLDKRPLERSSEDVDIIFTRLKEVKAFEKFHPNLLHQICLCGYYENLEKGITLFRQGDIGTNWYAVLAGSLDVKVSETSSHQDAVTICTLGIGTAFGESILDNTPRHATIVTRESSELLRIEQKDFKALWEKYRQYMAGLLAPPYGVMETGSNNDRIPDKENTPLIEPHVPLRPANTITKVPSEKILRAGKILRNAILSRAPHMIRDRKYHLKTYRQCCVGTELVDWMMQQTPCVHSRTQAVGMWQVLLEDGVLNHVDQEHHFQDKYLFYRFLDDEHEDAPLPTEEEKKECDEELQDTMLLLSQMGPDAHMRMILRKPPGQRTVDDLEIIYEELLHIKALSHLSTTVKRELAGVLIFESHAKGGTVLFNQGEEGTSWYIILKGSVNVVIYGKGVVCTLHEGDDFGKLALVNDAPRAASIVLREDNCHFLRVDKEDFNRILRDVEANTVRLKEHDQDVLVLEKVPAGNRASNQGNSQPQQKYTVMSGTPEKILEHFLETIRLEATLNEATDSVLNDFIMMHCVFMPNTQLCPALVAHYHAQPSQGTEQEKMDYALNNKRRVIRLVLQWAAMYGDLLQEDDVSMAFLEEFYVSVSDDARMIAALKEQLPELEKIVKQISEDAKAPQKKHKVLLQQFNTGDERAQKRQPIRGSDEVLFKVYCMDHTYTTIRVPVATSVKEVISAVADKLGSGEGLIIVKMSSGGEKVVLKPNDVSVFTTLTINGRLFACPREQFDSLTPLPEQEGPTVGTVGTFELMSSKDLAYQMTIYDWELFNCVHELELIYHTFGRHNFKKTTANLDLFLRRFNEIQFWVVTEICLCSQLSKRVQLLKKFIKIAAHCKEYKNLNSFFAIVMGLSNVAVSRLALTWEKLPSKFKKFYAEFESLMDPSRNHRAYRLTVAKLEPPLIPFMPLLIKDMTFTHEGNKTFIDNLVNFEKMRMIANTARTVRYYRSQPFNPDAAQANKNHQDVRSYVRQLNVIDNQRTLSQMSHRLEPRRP
Procedure, shortened: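 Fluorescent exchange assay: 100 nM EPAC2 with 250 nM RAP1B-BODIPY-GDP and 50 uM GDP; compound added, 5 min at room temperature, then read (ex 480/em 540 nm) every 5 min for 30 min. Normalized to 6.5 mM cAMP agonist control.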
% is scaled to controls: 0 for no effect and ±100 for the full control effect.

activation, inactive:
COc1cc(-c2noc(C)c2C#CC2(O)CCCCC2)cc(OC)c1OC -25.1%, O=C1[C@H](Cc2ccccc2)NC/C=C\C[C@@H](c2ccco2)N1Cc1ccccc1 -30.8%, COc1cc(CN2CCOc3ccc(CN4CCC(Oc5cccnc5)CC4)cc3C2)ccc1F -18.3%, Nc1nc(N)c2nc(CNc3ccc(C(=O)NC(CCC(=O)O)C(=O)O)cc3)cnc2n1 (stereo not drawn) -11.1%, COc1ccc(-n2c(=O)c(-c3cccs3)nc3cncnc32)cc1 -11.4%, CC(NC(=O)C1CCOCC1)c1nnc2n1CCN(Cc1ccc3cccnc3c1)CC2 (stereo not drawn) -11.4%, CC(=O)c1ccc[n+](CC(=O)c2ccc(F)cc2)c1 -18.9%, O=C(c1cnccn1)N1CCC2(CC1)CCN(c1ncccn1)CC2 -23.9%, CCCCNC(=O)O[C@@H]1C[C@H]2CCCC(=O)N3CC[C@@H](C1)[C@@H]23 -16.1%, CC(C)(CO)[C@@H](O)C(=O)NCCCC(=O)O 0.517%, NC(=NCc1ccccc1)NC(=O)c1nc(Cl)c(N)nc1N 5.24% [middle of 4 runs], C1=Cc2ccccc2/C1=C\c1ccc2c(c1)OCO2 2.94%, Cc1ccc(Nc2c(F)cccc2Cl)c(CC(=O)O)c1 -22.7%, O=C(O)c1cc(O)c2c(c1)C(=O)c1cccc(O)c1C2=O -23.7%, CC1(C)C(\C=C/C=C\C=C/C=C2/N(CCCCS(=O)(=O)O)c3ccc4ccccc4c3C2(C)C)=[N+](CCCCS(=O)(=O)[O-])c2ccc3ccccc3c21 24.9%, CCCCN1CC[C@H]2C=CC[C@@H](C(=O)Nc3ccccc3)[C@H]2C1=O -1.88%, COc1ccccc1C(=O)Nc1cccc(N2CCC(NCc3cnn(-c4ccccc4)n3)CC2)c1 13.4%, CN1CC[C@@]2(CCCN(S(=O)(=O)c3ccccc3)C2)C1 -9.67%, COc1cccc2c1[C@@H]1CN(CCCCn3c(=O)[nH]c4c(sc5ncc(-c6ccccc6)nc54)c3=O)C[C@@H]1CO2 -7.71%, CCCCCCCCCCCCCCCC(=O)OC[C@@H](O)[C@H]1OC[C@H](O)[C@H]1O -20.3%, COc1ccc(C(=O)N2CCC[C@@]3(CCN(c4ccccn4)C3)C2)cc1 -1.52%, NCCNC(=O)c1ccc(Cl)cn1 -13.8%, O=C(/C=C/c1ccc(O)c(O)c1)O[C@H]1C[C@@](O)(C(=O)O)CC(O)C1O (stereo partly drawn) -1.35%, O=C(c1ccc2c(c1)OCO2)N1CCOc2ccc(CN3CCC(Oc4cccnc4)CC3)cc2C1 -2.98%, FC(F)(F)C(F)(F)C(F)(F)C(F)(F)C(F)(F)C(F)(F)F 0.487%, N#Cc1ccc(CN2CCCC3(CCN(C(=O)c4cc(C(F)(F)F)cc(C(F)(F)F)c4)CC3)C2)cc1 -11.4%, C=C1CCC[C@]2(C)C[C@H]3OC(=O)[C@H](CNCCc4ccccc4OC)C3CC12 (stereo partly drawn) -14%, COc1cccc(CN2CCC3(CC2)c2ccccc2[C@@H](NC(=O)c2ccccc2OC)[C@@H]3O)c1 -4.35%, CC(=O)Oc1ccc(C)cc1 -5.22%, COc1ccc(CN2C[C@H](Sc3nc4ccccc4[nH]3)C[C@H]2C(=O)N2CCCN(C)CC2)cc1C 0.974%, CC1(C)CO[C@@H](CC(=O)O)CN1 24.4%, COc1cc(-c2noc(C)c2C#CCCN2C(=O)c3ccccc3C2=O)cc(OC)c1OC -12.1%, O=C1CCN(CCc2ccccc2)CCN1[C@H](COc1ccccc1)c1ccccc1 -19.9%, COc1cccc(-n2c(SC)nnc2C2CCN(Cc3nc4ccccc4s3)CC2)c1 -4.49%, CNC(C)[C@@H]1CC[C@@H](N)[C@@H](O[C@H]2[C@H](O)[C@@H](O[C@H]3OC[C@](C)(O)[C@H](NC)[C@H]3O)[C@H](N)C[C@@H]2N)O1 (stereo partly drawn) -13.9%, Oc1cccc(-c2c3nc(c(-c4cccc(O)c4)c4ccc([nH]4)c(-c4cccc(O)c4)c4nc(c(-c5cccc(O)c5)c5ccc2[nH]5)CC4)C=C3)c1 -5.84% and -22.1%, CN[C@@H]1[C@H](O[C@H]2[C@H](O[C@H]3[C@H](O)[C@@H](O)[C@H](N=C(N)N)[C@@H](O)[C@@H]3N=C(N)N)O[C@@H](C)[C@]2(O)C=O)O[C@@H](CO)[C@H](O)[C@H]1O 7.36%, Cc1cccc(C(=O)O)c1O 6.72%, COCC(=O)N1CCC[C@@]2(CCN(c3ccncc3)C2)C1 -13.6%, Cn1cc(C(=O)[C@@H]2CCc3nc[nH]c3C2)c2ccccc21 -3.04%, Nc1nc(Cl)nc2c1ncn2[C@H]1C[C@H](O)[C@@H](CO)O1 4.66% and -4.13%, COCCn1c(=O)c(CCc2ccccc2)nc2cnc(N(C)C)nc21 1.89%, Cc1cnc(CNc2ccnc(-c3ccoc3)n2)cn1 4.63%, CCc1cc(S(=O)(=O)O)c2cc(C(C)C)cccc1-2 -16.4%, COc1cc(-c2oc3cc(O)ccc3c(=O)c2O)ccc1O -10.4%, OCCOCCN1CCN(C2=Nc3ccccc3Sc3ccccc32)CC1 -9.24% and -25.7%, CCNc1ncc2nc(C)c(=O)n(Cc3ccc(F)cc3)c2n1 10.8%, Cc1cc(O)c(C)c(O)c1C(=O)O 2.2%, O=c1cc(-c2ccccc2O)oc2c(O)c(O)ccc12 -10.3%, O=C(NCCc1ccccn1)C1CC12CCN(C(=O)c1ccccc1Cl)CC2 (stereo not drawn) -15.9%, CC1(C)CO[C@H](CC(=O)O)CN1 -2.59%, COc1cccc(-c2nccc(NCc3cccs3)n2)c1 -11.5%, Cn1cnc2c(NCc3ccccc3)nc(NCCO)nc21 4.72% [middle of 4 runs]
